Measurements taken from the antibiotic and cytotoxicity screens of Wong et al. (2023).
This is one part of the list.

What was measured:
HSkMC = human skeletal muscle cells; experiment: cytotoxicity call (relative viability < 0.9); conditions: 10 µM
HepG2 = experiment: cytotoxicity call (relative viability < 0.9); conditions: 10 µM
S. aureus RN4220 = experiment: growth inhibition call (relative growth <= 0.2); conditions: 50 µM

C[C@@H]1CN([C@H](C)CO)C(=O)c2cc(NS(=O)(=O)c3cccs3)ccc2O[C@@H]1CN(C)S(=O)(=O)c1cccs1
inactive: cytotoxicity call (HSkMC) | cytotoxicity call (HepG2) | growth inhibition call (S. aureus RN4220)

COC[C@H]1CN(C(=O)c2ccccn2)N1
inactive: cytotoxicity call (HSkMC) | cytotoxicity call (HepG2) | growth inhibition call (S. aureus RN4220)

C[C@H]1CCCCO[C@@H](CN(C)C(=O)C2CCCCC2)[C@@H](C)CN([C@@H](C)CO)C(=O)c2cc(NS(=O)(=O)c3ccccc3)ccc2O1
inactive: cytotoxicity call (HSkMC) | cytotoxicity call (HepG2) | growth inhibition call (S. aureus RN4220)

C[C@H](CO)N1C[C@H](C)[C@@H](CN(C)Cc2ccncc2)Oc2ccc(NS(=O)(=O)c3cccs3)cc2CC1=O
inactive: cytotoxicity call (HSkMC) | cytotoxicity call (HepG2) | growth inhibition call (S. aureus RN4220)

Cc1ccc(N(CC2=NCCN2)c2cccc(O)c2)cc1.Cl
inactive: cytotoxicity call (HSkMC) | cytotoxicity call (HepG2) | growth inhibition call (S. aureus RN4220)

O=C1NC(=O)[C@H]2CC[C@H]2N1
inactive: cytotoxicity call (HSkMC) | cytotoxicity call (HepG2) | growth inhibition call (S. aureus RN4220)

C[C@@H]1CN([C@H](C)CO)C(=O)Cc2cc(NC(=O)c3ccncc3)ccc2O[C@@H]1CN(C)S(=O)(=O)c1cn(C)cn1
inactive: cytotoxicity call (HSkMC) | cytotoxicity call (HepG2) | growth inhibition call (S. aureus RN4220)

CNC[C@@H]1OCCCC[C@H](C)Oc2ccc(NS(=O)(=O)c3c(C)noc3C)cc2C(=O)N([C@H](C)CO)C[C@@H]1C
inactive: cytotoxicity call (HSkMC) | cytotoxicity call (HepG2) | growth inhibition call (S. aureus RN4220)

C[C@@H]1CN([C@@H](C)CO)C(=O)c2cccc(NC(=O)C3CC3)c2O[C@@H]1CN(C)S(=O)(=O)c1ccc(Cl)cc1
inactive: cytotoxicity call (HSkMC) | cytotoxicity call (HepG2) | growth inhibition call (S. aureus RN4220)

C[C@H](CO)N1C[C@H](C)[C@H](CN(C)S(=O)(=O)c2ccc(Cl)cc2)Oc2c(NC(=O)Nc3cccc4ccccc34)cccc2C1=O
inactive: cytotoxicity call (HSkMC) | cytotoxicity call (HepG2) | growth inhibition call (S. aureus RN4220)

C[C@H]1CN([C@@H](C)CO)C(=O)Cc2cc(NC(=O)C3CC3)ccc2O[C@@H]1CN(C)C(=O)Nc1ccc(F)cc1
inactive: cytotoxicity call (HSkMC) | cytotoxicity call (HepG2) | growth inhibition call (S. aureus RN4220)
